Assay results as given in PMC7807415.

Substrate: CN1C(C(=O)Nc2nccs2)=C(O)c2ccccc2S1(=O)=O
Assay: cells, lysate or membranes named
Conditions: other: sudoxicam -> glyoxal (bioactivation), recombinant CYP 3A4; pH 7.4

B1: CYP3A4 (Homo sapiens) (protein)
chain: MALIPDLAMETWLLLAVSLVLLYLYGTHSHGLFKKLGIPGPTPLPFLGNILSYHKGFCMFDMECHKKYGKVWGFYDGQQPVLAITDPDMIKTVLVKECYSVFTNRRPFGPVGFMKSAISIAEDEEWKRLRSLLSPTFTSGKLKEMVPIIAQYGDVLVRNLRREAETGKPVTLKDVFGAYSMDVITSTSFGVNIDSLNNPQDPFVENTKKLLRFDFLDPFFLSITVFPFLIPILEVLNICVFPREVTNFLRKSVKRMKESRLEDTQKHRVDFLQLMIDSQNSKETESHKALSDLELVAQSIIFIFAGYETTSSVLSFIMYELATHPDVQQKLQEEIDAVLPNKAPPTYDTVLQMEYLDMVVNETLRLFPIAMRLERVCKKDVEINGMFIPKGVVVMIPSYALHRDPKYWTEPEKFLPERFSKKNKDNIDPYIYTPFGSGPRNCIGMRFALMNMKLALIRVLQNFSFKPCKETQIPLKLSLGGLLQPEKPVVLKVESRDGTVSGA
Km: 29 ± 5.8 µM
